PubChem BioAssay AID1645882 (National Center for Advancing Translational Sciences (NCATS), 2021)
The campaign covered roughly 16,000 compounds. About 120 (0.75%) were called active. Inconclusive results (about 4%) are left out. Calls come from the whole dose curve; as a rule, active = well fitted inhibition curve with a large enough effect; inconclusive = small, poorly fitted or top-dose-only effect; inactive = no such curve, though single readings can be large or run the other way. The list shows a part of the results.

Each compound was assayed against Rap guanine nucleotide exchange factor 3 (Homo sapiens) (UniProt O95398) (assay: Validation qHTS for antagonist of cAMP-regulated guanine nucleotide exchange factor 3 (EPAC1)). Conditions: EPAC1 Rap1B-BODIPY-GDP exchange, fluorescence; series mostly up to 150 µM; activity change, negative = inhibition: at the top concentration.
Method in brief: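 EPAC1 (100 nM) mixed with 250 nM RAP1B-BODIPY-GDP and 50 uM GDP; compounds in concentration series, 5 min at room temperature. Fluorescence (ex 480/em 540 nm) read every 5 min for 30 min; normalized to ATA control and DMSO.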
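Note: plate controls were DMSO for no effect and ATA control for full effect; nearly all actives have a fitted effect of over 75% in size.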

Chain of UniProt O95398 (O95398 whole entry, looked up): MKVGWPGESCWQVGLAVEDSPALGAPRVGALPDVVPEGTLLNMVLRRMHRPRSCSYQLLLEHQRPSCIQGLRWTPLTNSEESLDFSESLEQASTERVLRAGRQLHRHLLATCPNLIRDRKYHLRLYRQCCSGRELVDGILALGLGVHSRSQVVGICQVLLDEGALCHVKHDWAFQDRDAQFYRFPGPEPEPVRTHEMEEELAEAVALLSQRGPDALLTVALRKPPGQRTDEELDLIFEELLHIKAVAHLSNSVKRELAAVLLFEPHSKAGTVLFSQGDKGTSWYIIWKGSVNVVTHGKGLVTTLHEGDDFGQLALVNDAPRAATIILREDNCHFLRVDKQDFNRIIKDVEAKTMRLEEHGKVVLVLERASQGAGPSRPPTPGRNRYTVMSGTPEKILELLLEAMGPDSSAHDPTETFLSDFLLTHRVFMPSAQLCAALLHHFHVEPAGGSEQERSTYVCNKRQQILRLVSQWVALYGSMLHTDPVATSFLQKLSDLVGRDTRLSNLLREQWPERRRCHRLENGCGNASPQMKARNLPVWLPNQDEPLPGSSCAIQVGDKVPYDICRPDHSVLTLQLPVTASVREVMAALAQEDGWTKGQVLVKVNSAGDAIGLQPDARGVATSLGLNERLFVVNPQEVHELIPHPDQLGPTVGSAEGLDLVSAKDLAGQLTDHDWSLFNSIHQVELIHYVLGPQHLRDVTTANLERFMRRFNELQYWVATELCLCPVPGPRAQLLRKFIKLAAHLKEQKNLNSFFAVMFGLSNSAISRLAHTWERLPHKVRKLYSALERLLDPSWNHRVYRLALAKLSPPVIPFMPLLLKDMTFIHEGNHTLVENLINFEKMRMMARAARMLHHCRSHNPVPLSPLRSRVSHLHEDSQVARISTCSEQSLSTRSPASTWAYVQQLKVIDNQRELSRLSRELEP

SMILES	activity change, negative = inhibition
CC(C)C[C@@H](CC#N)N1CCN(Cc2ccccc2)CCC1=O	inactive: -3.84%
CC[C@@H](C)[C@H](N)C(=O)O	inactive: 16.6%
COCc1ccc(CN2Cc3ccccc3OC(c3ccccc3OC)C2)o1 (stereo not drawn)	inactive: 12.4%
Cc1cc2c(c(-c3cnccn3)c1)OC(CNC(=O)c1cc(C(C)C)[nH]n1)C2 (stereo not drawn)	inactive: 5.99%
CC(=O)Oc1cc(OC(C)=O)c2c(=O)cc(-c3ccc(OC(C)=O)c(OC(C)=O)c3)oc2c1	inactive: -17.4%
COc1cccc(-c2cncnc2NCCc2cnc[nH]2)c1	inactive: -0.604%
COc1cc2nc(N3CCN(C(=O)[C@H]4CCCO4)CC3)nc(N)c2cc1OC	inactive: 0.765%
COCC(=O)Nc1cc(C(=O)NC2CCc3ccccc32)c2c(c1)nc(-c1ccncc1)n2C (stereo not drawn)	inactive: 17.4%
CN[C@H]1CCc2cc(OC)c(OC)c(OC)c2-c2ccc(N[C@@H]3CCCCNC3=O)c(=O)cc21	inactive: 6%
NCCC(O)(P(=O)(O)O)P(=O)(O)O	inactive: 21.3%
COc1ccc(Oc2ncc3nc(C)c(=O)n(-c4ccc(OC)cc4)c3n2)cc1	inactive: 4.42%
Cc1cccc2cc(CN(CC3CCCO3)C(=O)C3CC3)c(N(C)C)nc12 (stereo not drawn)	inactive: 9.03%
COc1ncc2nc(-c3cn(C)c4ccccc34)c(=O)n(C[C@H]3CCCO3)c2n1	inactive: 19.3%
CN1CCc2cc(NC(=O)Nc3cccnc3)ccc21	inactive: -3.99% [at 75.8 µM]
O=C(c1ccccc1F)N(Cc1cc2cc3c(cc2nc1N1CCOCC1)CCC3)CC1CCCO1 (stereo not drawn)	inactive: -14.5%
CCCCC/C=C\CC1OC1CCCCCCCC(=O)O (stereo not drawn)	inactive: 14.9% [at 1.57 µM]
Cn1c(-c2nc(-c3ccccc3)cs2)nc2ccccc21	inactive: 15.4%
Nc1nc(N)c(-c2ccccc2)s1	inactive: 10.7%
O=c1c(CN2CCOc3ccc(CN4CCC(Oc5cccnc5)CC4)cc3C2)coc2ccccc12	inactive: -16.5%
COc1ccccc1C1CN(CC(=O)N[C@H]2CCCCNC2=O)Cc2ccccc2O1 (stereo partly drawn)	inactive: 3.92%
C(=C\c1cccs1)/c1ccccn1	inactive: -21.3%
CC(C)c1nc2cccnc2n1C1CCN(C(=O)Cn2cccn2)CC1	inactive: 30.7%
COCCn1c(=O)c(-c2ccc(Cl)cc2)nc2cnc(Oc3cccc(Cl)c3)nc21	inactive: 16%
CCNc1ncc2nc(-c3ccc(OC)cc3)c(=O)n(CCOC)c2n1	inactive: 19.4%
Cn1c(=O)c(-c2ccc(Cl)cc2)nc2cnc(Nc3ccccc3)nc21	inactive: 12.7%
O=c1c(-c2ccccc2)nc2cnc(Oc3cccc(Cl)c3)nc2n1C1CC1	inactive: -8.47%

SMILES	activity change, negative = inhibition
O=c1ccn([C@H]2C[C@H](O)[C@@H](CO)O2)c(=O)[nH]1	inactive: 13%
CN(C)CC(C)(O)c1ccc2c(c1)CN(Cc1cnn(-c3ccccc3)c1)CCO2 (stereo not drawn)	inactive: 23.3%
Cc1nc2cnc(N3CCOCC3)nc2n(CCc2ccccc2)c1=O	inactive: 13.7%
N[C@@]1(C(=O)O)CN[C@@H](C(=O)O)C1	inactive: 3.77%
Cc1c(NC(C)C)c(=O)n(-c2ccccc2)n1C	inactive: 9.97%
COc1ccccc1CCNc1ncnc2sc(C(=O)N3CCCC3)c(C)c12	inactive: 1.45%
c1cncc(OC2CCN(Cc3ccc4c(c3)CN(Cc3ccc5c(c3)OCCO5)CCO4)CC2)c1	inactive: 6.92%
COc1cc(N)c(Cl)cc1C(=O)CCC1CCN(CCNS(C)(=O)=O)CC1	inactive
CCCNC(C)C(=O)Nc1c(C)csc1C(=O)OC (stereo not drawn)	inactive: -0.822% [at 75.8 µM]
N#Cc1cccc(NC(=O)N2CCC3(CC2)CCN(C(=O)c2cnccn2)CC3)c1	inactive: 12.3%
Clc1ccccc1-c1cc(NCc2cccnc2)ncn1	inactive: 7.9%
COc1cccc(N(C)C(=S)Oc2ccc3c(c2)CCCC3)n1	inactive: 5.96%
CCCCCCCCCC(=O)OCC(CO)OC(=O)CCCCCCCCC (stereo not drawn)	inactive: 8.19% [at 15.3 µM]
CCN(Cc1ccncc1)Cc1ccc2c(c1)CN(C(=O)c1cccc(-n3nc(C)cc3C)c1)CCO2	inactive: 10.4%
Nc1ccncc1N	inactive: 11%
Oc1ccc([C@@H]2CNCCc3c2cc(O)c(O)c3Cl)cc1	inactive: 10.5%
COC(=O)[C@H]1[C@H]2C[C@@H]3c4[nH]c5ccccc5c4CCN3C[C@H]2C[C@@H](OC(=O)c2cc(OC)c(OC)c(OC)c2)[C@@H]1OC	inactive
O=C(O)c1ccc(NC(=O)[C@H](Cc2ccc(O)cc2)NC(=O)c2ccccc2)cc1	inactive: 8.96%
COC(=O)N1CCC2(CC1)CN(c1ccncc1)C2	inactive: 3.12%
CCc1c(C)nc2c(OC)cccc2c1Cl	inactive: 12.3%
CC(=O)C1CCC2C3CC=C4CC(O)CC[C@@]4(C)C3CC[C@]12C (stereo partly drawn)	inactive: 15.1%
O=C(c1n[nH]c2c1CCCC2)N1CCOc2ccc(C(O)C(c3ccccc3)c3ccccc3)cc2C1 (stereo not drawn)	inactive: -8.79%
CN(C)Cc1ccccc1-c1nccc(N(C)Cc2ccco2)n1	inactive: 11.7%
COc1ccc(C(=O)N2CCC3(CC2)CN(c2ccc(-c4ccccc4)cc2)C3)cc1	inactive: 19.1%
COC(=O)[C@@H](N)Cc1ccc(O)c(O)c1	inactive
COc1ccc2c(c1)c(CC(=O)O)c(C)n2Cc1ccc(Cl)cc1	inactive: -6.29% [at 75.8 µM]

SMILES	activity change, negative = inhibition
C[C@]12CCC(=O)C=C1C=C[C@@H]1[C@@H]2CC[C@@]2(C)[C@H]1CC[C@@]21CCC(=O)O1	inactive: 8.67%
O=S1(=O)CCO[C@H]2CCCC[C@@H]2N1Cc1cccc(F)c1	inactive: 12.6%
C[C@H](/C=C/[C@H](C)C(C)(C)O)[C@H]1CC[C@H]2/C(=C/C=C3C[C@@H](O)C[C@H](O)C3)CCC[C@]12C	inactive: 29.7%
COCC(=O)N1CCC2(CCN(Cc3ccccc3OC)CC2)CC1	inactive: 9.62%
CC1(C)[C@@H](O)CC[C@]2(C)[C@H]3C(=O)C=C4[C@@H]5C[C@@](C)(C(=O)O)CC[C@]5(C)CC[C@@]4(C)[C@]3(C)CC[C@@H]12	inactive
Nc1ncnc2c1[nH]c(=O)n2C1CC(O)C(CO)O1 (stereo not drawn)	inactive: 11.4%
CN1CCN(c2nc(-c3ccc(N(C)C)cc3)nc3ccccc23)CC1	inactive: 16.4%
COC(=O)CCc1ccc(OCC(O)CNC(C)C)cc1 (stereo not drawn)	inactive: 27.6%
CCCOC(=O)N[C@@H]1C(=O)N2C(C(=O)OCCC)=C(C)CS[C@H]12	inactive: -0.626%
N[C@H](C(=O)O)[C@H]1C[C@H]1C(=O)O	inactive: 18.5%
COCCOC(=O)C1=C(C)NC(C)=C(C(=O)OC(C)C)C1c1cccc([N+](=O)[O-])c1 (stereo not drawn)	inactive
NCCS	inactive
CN1C(C(=O)Nc2ccccn2)=C(O)c2ccccc2S1(=O)=O	inactive
O=C(NCC1Cc2cc(F)cc(-c3cnccn3)c2O1)c1cccc(-c2ccccc2F)c1 (stereo not drawn)	inactive: -16.9%
O=C(c1cnsn1)N1CCOc2ccc(C(O)C(c3ccccc3)c3ccccc3)cc2C1 (stereo not drawn)	inactive: 0.764%
O=C(N[C@@H]1c2ccccc2C2(CCN(C(=O)c3cc4ccccc4oc3=O)CC2)[C@H]1O)c1cccnc1	inactive: 11.4%
O=C(C[n+]1ccncc1Cl)c1ccc(F)cc1	inactive: 10.8%
COc1ccc(C2Oc3cc(OC)cc(OC)c3CC2O)cc1 (stereo not drawn)	inactive: 7.42%
COc1ccccc1CN1CCOc2ccc(C(C)(O)COc3ccccc3)cc2C1 (stereo not drawn)	inactive: -3.89%
Cc1noc(C)c1C(=O)N1CCC2(CCN(C(=O)Nc3ccccc3)CC2)CC1	inactive: 3.07%
O=C(O)c1ccc(-n2nc(-c3ccccc3O)nc2-c2ccccc2O)cc1	inactive: 29.7%
N#Cc1cccc(-c2nc(Nc3ccncc3)c3ccccc3n2)c1	inactive: 6.07%
COc1ccccc1-c1ccc(C(=O)NCCN2CCOCC2)c(N2CCN(c3ccccc3F)CC2)n1	inactive: 17.3%
CCCCCC(=O)Cc1cc(O)cc(O)c1C(=O)Oc1cc(CC(=O)CCCCC)c(C(=O)O)c(OC)c1	inactive: -3.31%
NC(=O)OCC(O)COc1ccc(Cl)cc1 (stereo not drawn)	inactive: 19.5% [at 75.8 µM]
Cn1c(=O)c(-c2cccs2)nc2cncnc21	inactive: 15.4%

SMILES	activity change, negative = inhibition
CN(C)CCC=C1c2ccccc2C(C)(C)c2ccccc21	inactive: 1.37%
N=C(N)SCCc1ccc(CCSC(=N)N)cc1	inactive: 17% [at 75.8 µM]
COc1ccc(CN(CCN(C)C)c2ncccn2)cc1	inactive: 14.6%
O=C(/C=C/c1cccc(F)c1)NC1CC1	inactive: 5.73%
O=C(O)C[C@H]1c2cc(C(F)(F)F)ccc2S(=O)(=O)N1Cc1ccccc1	inactive: 17.8%
CN1CCN(C(=O)C2CCCCC2)CC1	inactive: 7.91%
Oc1ccc(C2CNCc3sccc32)cc1O (stereo not drawn)	inactive: 1.51% [at 75.8 µM]
C[C@@H]1NS(=O)(=O)[C@H]2C[C@@H]3C=C[C@]2(O3)[C@H]1OC(=O)c1ccccc1Br	inactive: 1.08%
Cc1cc2c(OCC(CNC(C)(C)C)OC(=O)c3ccccc3)cccc2[nH]1 (stereo not drawn)	inactive: 12.1%
COc1c2ccoc2cc2oc(C)cc(=O)c12	inactive: -6.68%
CCNc1ncc2nc(-c3cc(F)cc(F)c3)c(=O)n(CCC#N)c2n1	inactive: 9.19%
COc1ccc2[nH]cc(CCNc3nc(-c4ccccc4OC)nc4ccccc34)c2c1	inactive: -4.34%
CCc1ccc(C=O)cc1	inactive: 14.8%
O=C(c1cnccn1)N1CCC2(CC1)CN(c1ccccc1)C2	inactive: 1.38%
CC(C)c1c(C(=O)NCc2cccnc2)cnn1-c1nccc(-c2cccs2)n1	inactive: 0.817%
O=C(NCC1Cc2cc(F)cc(-c3cnccn3)c2O1)C1COc2ccccc2O1 (stereo not drawn)	inactive: 14.7%
NC(=O)c1ccc[n+]([C@@H]2O[C@H](COP(=O)([O-])OP(=O)(O)OC[C@H]3O[C@@H](n4cnc5c(N)ncnc54)[C@H](O)[C@@H]3O)[C@@H](O)[C@H]2O)c1	inactive
CN1CCN(c2ncc3nc(-c4cccc(C#N)c4)c(=O)n(C)c3n2)CC1	inactive: 6.61%
COCC(=O)N1CCC2(CC1)CN(C(=O)Nc1ccccc1)C2	inactive: 10.4%
CC(=O)O[C@H]1C[C@@H]2CC[C@@H]3[C@H](CC[C@@]4(C)[C@H]3C[C@H](N3CC[N+](C)(C)CC3)[C@@H]4OC(C)=O)[C@@]2(C)C[C@@H]1N1CC[N+](C)(C)CC1	inactive: 31.4%
CSc1nc(N)c2ncn([C@H]3O[C@H](COP(=O)(O)OP(=O)(O)OP(=O)(O)O)[C@@H](O)[C@@H]3O)c2n1	inactive: 5.39%
NCC(=O)CCC(=O)O	inactive: 15.1%
COc1cc2c(cc1OC)C1C(=O)c3c(cc4c(c3O)C=CC(C)(C)O4)OC1CO2 (stereo not drawn)	inactive: -1.99%
COCCn1c(=O)c(-c2ccc(OC)cc2)nc2cnc(N3CCOCC3)nc21	inactive: 41.6%
Cn1cccc1C(=O)N1CCC2(CC1)CN(C(=O)Nc1ccccc1)C2	inactive: 20.8%
